# According to PubChem BioAssay AID652104 (National Center for Advancing Translational Sciences (NCATS), 2013):
# Screen size: about 410,000 compounds; about 7,200 (1.8%) were called active. Inconclusive results, whose numbers are uncertain, are shown with a selection of clear calls. The call rests on the fitted dose curve; in most records, active means well fitted activation curve with a large enough effect; inconclusive means small, poorly fitted or top-dose-only effect, or another doubt; inactive means no such curve, though single readings can be large or run the other way. No potency is given beside an inconclusive call; the fits are too rough.
# Assay: qHTS of TDP-43 Inhibitors; further: nearly all actives have a fitted effect of over 50% in size
# Conditions: TDP-43 expressing yeast growth rescue, BacTiter-Glo, 24 h; series mostly up to 46.1 µM
# How it was run: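 Cell-based yeast growth screen: TDP-43 expression induced in galactose, inoculum OD600=0.02 after raffinose pregrowth to mid-log. Read-out BacTiter-Glo luminescence at 24 hr, 30 deg C; inhibition of toxicity seen as signal increase.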
# Potency means the concentration at half of the fitted maximal effect; tags describe the fitted curve by direction and shape.
row,SMILES,Potency
1,O=C(CCl)Nc1cn(-c2ccccc2)nc1-c1ccc(F)cc1,active: 8.91 µM
2,CC(=O)[C@@]1(O)CC[C@H]2[C@@H]3CCC4=CC(=O)CC[C@]4(C)[C@H]3[C@@H](O)C[C@@]21C,"inconclusive [activator, partial curve, poor fit]"
3,C/C=C(/C)C(=O)OC(C)(C)[C@@H]1Cc2c(ccc3ccc(=O)oc23)O1,"inconclusive [activator, single point]"
4,CCOC(=O)C1=CCN(S(=O)(=O)c2ccccc2C(=O)OC)C1c1ccc(Cl)cc1 (configuration not stated),"inconclusive [activator, single point]"
5,CCC1=NN2C(=N)/C(=C\c3cccn3-c3ccc(C)cc3C)C(=O)N=C2S1,"inconclusive [activator, single point]"
6,CC(C)(C)NC(=S)Nc1ccc(Br)cc1,active: 15.8 µM
7,CCOC(=O)c1ccc2c(c1)nc(SCC(=O)c1ccco1)n2CC,"inconclusive [activator, partial curve]"
8,COc1ccc(CCNC(=O)c2ccc(Br)o2)cc1Br,"inconclusive [activator, partial curve]"
9,CCc1ccc(OCC(=O)NNC(=S)NC(=O)C2CCCCC2)c(Br)c1,active: 17.8 µM
10,COc1ccc(C2=C(N3CCN(c4cc(C)ccc4C)CC3)c3ccccc3C2=O)cc1,"inconclusive [activator, full curve, poor fit]"
11,CCc1ccc(-n2c(=O)c3sc4ccccc4c3n(CC(=O)NCc3ccccc3)c2=O)cc1,inactive
12,Cc1ccc2nc(C)c(C(=O)N/N=C/c3ccccc3[N+](=O)[O-])cc2c1,"inconclusive [activator, partial curve]"
13,O=C(c1ccc2c(c1)N(Cc1cccc(F)c1)C(=O)c1ccccc1S2)N1CCC2(CC1)OCCO2,"inconclusive [activator, partial curve, poor fit]"
14,Cn1cccc1C(=O)C(=O)Nc1ccc(F)c(F)c1,"inconclusive [activator, partial curve]"
15,C=CCNC(=S)NN(c1ccccc1)c1ccccc1,"inconclusive [activator, partial curve, poor fit]"
16,O=C(COC(=O)c1ccc([N+](=O)[O-])o1)NCc1ccc(F)cc1,"inconclusive [activator, single point]"
17,O=C(O)CCc1ccc(-c2ccc(Cl)cc2)o1,"inconclusive [activator, single point]"
18,COc1ccc(CC(=O)O/N=C(\N)Cc2ccc([N+](=O)[O-])cc2)cc1,"inconclusive [activator, single point]"
19,COc1ccc(S(=O)(=O)NC(=O)C2(C)CCN2C(=O)C2(c3ccccc3)CC2)cc1 (configuration not stated),"inconclusive [activator, partial curve]"
20,CC(=O)NC(=S)Nc1sc2c(c1C#N)CCCCC2,"inconclusive [activator, single point]"
21,COc1ccc(-c2c(C)nn3c(C(F)(F)F)cc(-c4ccccc4)nc23)cc1OC,"inconclusive [activator, partial curve]"

row,SMILES,Potency
1,CCOc1cc(/C=N\O)cc(Cl)c1OCC,active: 10 µM
2,COc1cc(Cl)c(C)cc1NC(=O)CCc1nc2cccnc2n1Cc1cccs1,"inconclusive [activator, single point]"
3,O=C(NC(=S)NCCC1=CCCCC1)c1ccccc1Br,"inconclusive [activator, single point]"
4,O=C(Nc1cc(C(F)(F)F)ccc1-n1cncn1)c1ccc(-c2ccccc2)cc1,active: 14.1 µM
5,CC(O)CN(CC(C)O)c1ccc2c(c1)Cc1cc([N+](=O)[O-])ccc1-2 (configuration not stated),"inconclusive [activator, single point]"
6,Cc1ccc(-n2c(=O)c3c4c(sc3n(CC(=O)Nc3cccc(Cl)c3)c2=O)CCCCC4)cc1C,inactive
7,Fc1ccc(C(NCCc2ccccc2)c2nnc(-c3ccccc3Cl)o2)cc1 (configuration not stated),inactive
8,CCOC(=O)C1=C(C)N(c2ccc(OC)cc2)C(=O)/C1=C\c1ccc(O)c(OCC)c1,inactive
9,CS(=O)(=O)Nc1ccc([N+](=O)[O-])cc1Oc1ccccc1,inactive
10,CCOCCCNC(=O)c1cc2c(s1)-c1ccccc1SC2,"inconclusive [activator, partial curve]"
11,CCn1cc(S(=O)(=O)c2cccc(Cl)c2)c(=O)c2cc(F)c(N3CCN(C)CC3)cc21,"inconclusive [activator, full curve, poor fit]"
12,COc1ccc(OC)c(CNC(=O)c2ccc(NC(=O)c3nsc4ccccc34)cc2)c1,inactive
13,Cc1ccccc1OCCCCn1c(CCNC(=O)C(C)(C)C)nc2ccccc21,inactive
14,COc1cccc(-c2noc(CCCC(=O)NCc3ccco3)n2)c1,"inconclusive [activator, partial curve]"
15,Cc1ccc([C@H]2C(C(=O)O)=C[C@@H](C(C)(C)C)N2S(=O)(=O)c2ccc(C)cc2)cc1,"inconclusive [activator, single point]"
16,CCOc1ccc(C(C(=O)NC(C)(C)C)N(CCOC)C(=O)CCC(=O)Nc2ccccn2)cc1 (configuration not stated),"inconclusive [activator, partial curve]"
17,C=C(C)COc1ccc(-c2[nH]ncc2Oc2ccc(OC)cc2)c(O)c1,"inconclusive [activator, single point]"
18,CC1(C)Cc2c(C#N)c(N3CCN(C(=O)c4ccccc4)CC3)nc(-c3ccco3)c2CS1,inactive
19,CC(=O)NC(c1ccc(F)c(F)c1)c1nc(-c2cccc(C(F)(F)F)c2)cs1 (configuration not stated),"inconclusive [activator, full curve, poor fit]"
20,O=C(CCCN1C(=O)/C(=C/c2ccccc2OC(F)F)SC1=S)Nc1cccnc1,"inconclusive [activator, single point]"
21,COc1ccc(C2C(C#N)=C(N)Oc3c2oc(CO)cc3=O)c(OC)c1OC (configuration not stated),inactive
